Data from the antibiotic and cytotoxicity screens of Wong et al. (2023).
Some of the results follow.

System: S. aureus RN4220
Experiment: growth inhibition call (relative growth <= 0.2)
Conditions: 50 µM

SMILES	growth inhibition call
Cc1ccc(S(=O)(=O)Nc2ccc3c(c2)C(=O)N([C@@H](C)CO)C[C@H](C)[C@H](CN(C)C(=O)C2CCCCC2)OCCCC[C@@H](C)O3)cc1	inactive
O=c1c(O)c(-c2ccc(O)c(O)c2)oc2cc(O)cc(O)c12	inactive
C[C@@H]1CCCCO[C@@H](CN(C)Cc2ccc3c(c2)OCO3)[C@@H](C)CN([C@@H](C)CO)C(=O)c2cc(NC(=O)C3CCCCC3)ccc2O1	inactive
C[C@H](CO)N1C[C@H](C)[C@H](CN(C)S(=O)(=O)c2ccccc2)Oc2ccc(NC(=O)c3ccncc3)cc2CC1=O	inactive
C[C@@H]1CN([C@H](C)CO)C(=O)c2cccc(NC(=O)Nc3ccc(F)cc3)c2O[C@H]1CN(C)Cc1ccc(C(F)(F)F)cc1	inactive
COCCNC(=O)C[C@@H]1CC[C@@H]2[C@@H](COc3ccc(NC(=O)Nc4cccc(F)c4)cc3C(=O)N2C)O1	inactive
COc1ccc([Si](C)(C)[C@@H]2[C@@H](CC(=O)N(CCO)Cc3ccccc3)O[C@]3(C(=O)N(Cc4cccc(N5CCC5=O)c4)c4ccccc43)[C@H]2C)cc1	inactive
Cc1noc(C)c1S(=O)(=O)N(C)C[C@@H]1Oc2ccc(NC(=O)Cc3ccccc3)cc2CC(=O)N([C@@H](C)CO)C[C@@H]1C	inactive
Cn1c([N+](=O)[O-])cnc1COC(N)=O	inactive
CCCC[C@@H](C#N)c1ccccn1	inactive
O=C(C[C@@H]1CC[C@H]2[C@@H](COC[C@@H](O)CN2C(=O)Nc2ccc(C(F)(F)F)cc2)O1)NCCc1ccncc1	active
Cc1ccc(S(=O)(=O)N(C)C[C@H]2Oc3ccc(NS(C)(=O)=O)cc3C(=O)N([C@H](C)CO)C[C@@H]2C)cc1	inactive
C[C@@H]1CN([C@H](C)CO)S(=O)(=O)c2ccc(-c3cncnc3)cc2O[C@@H]1CN(C)C(=O)CN(C)C	inactive
C[C@H](CO)N1C[C@H](C)[C@@H](CN(C)CC2CC2)OCCCC[C@H](C)Oc2ccc(NC(=O)Nc3ccc4c(c3)OCO4)cc2C1=O	inactive
C[C@H](CO)N1C[C@H](C)[C@@H](CN(C)Cc2ccc(Oc3ccccc3)cc2)Oc2c(NC(=O)C3CC3)cccc2C1=O	inactive
CCc1nc2ccc(C(=O)Nc3cc(-c4ccccc4)ccc3OC)cn2c1N(C)CCCc1ccccc1	inactive
COc1ccc(S(=O)(=O)N(C)C[C@@H]2Oc3ccc(NS(=O)(=O)c4c(C)noc4C)cc3CC(=O)N([C@@H](C)CO)C[C@H]2C)cc1	inactive
C[C@H]1CN([C@@H](C)CO)C(=O)c2cccc(NC(=O)c3ccc(-c4nccs4)cc3)c2O[C@@H]1CN(C)Cc1ccc(-c2ccccc2)cc1	inactive
C[C@H]1CN([C@@H](C)CO)S(=O)(=O)c2ccc(C3=CCCC3)cc2O[C@@H]1CN(C)S(=O)(=O)c1cn(C)cn1	inactive
Cc1noc(C)c1NC(=O)N(C)C[C@H]1OCCCC[C@@H](C)Oc2ccc(NC(=O)CCC(F)(F)F)cc2C(=O)N([C@H](C)CO)C[C@@H]1C	inactive

SMILES	growth inhibition call
C[C@H](CO)N1C[C@H](C)[C@H](CN(C)Cc2ccc(Cl)c(Cl)c2)Oc2ccc(NC(=O)Cc3ccccc3)cc2CC1=O	inactive
CC(C)[C@H]1CC[C@@H](C)C[C@@H]1NC(=O)c1cccc2ccccc12	inactive
C[C@H]1CN([C@@H](C)CO)C(=O)c2cccc(NC(=O)c3ccc(-c4nccs4)cc3)c2O[C@H]1CN(C)S(C)(=O)=O	inactive
Cn1c(=O)n2n(c1=O)[C@H](C1CC1)C=C1CN3[C@@H]([C@H](Cc4ccccc4)OC(=O)[C@@H]3Cc3ccc(-n4cc(CCC(=O)NO)nn4)cc3)[C@@H]12	inactive
CC(C)NC(=O)Nc1ccc2c(c1)CC(=O)N([C@@H](C)CO)C[C@H](C)[C@@H](CN(C)S(=O)(=O)c1ccccc1)O2	inactive
C[C@@H]1O[C@@H](O)[C@H](O)[C@H](O)[C@H]1O	inactive
C[C@@H]1CCCCO[C@H](CN(C)Cc2ccc(C(=O)O)cc2)[C@@H](C)CN([C@H](C)CO)C(=O)c2cc(NC(=O)C3CCCCC3)ccc2O1	inactive
Nc1cc(=O)nc(N)[nH]1	inactive
C[C@H](CO)N1C[C@H](C)[C@H](CN(C)Cc2ccc(C(F)(F)F)cc2)OCCCC[C@H](C)Oc2ccc(NC(=O)Cc3ccccc3)cc2C1=O	inactive
C=CCC[C@H](Cc1ccc(F)cc1)C(=O)OC[C@H](Cc1c[nH]c2ccccc12)NC(=O)[C@H](CC=C)CC(=O)N(CCO)Cc1ccccc1	inactive
C[C@H]1CCCCO[C@H](CN(C)C(=O)Nc2ccc(C(F)(F)F)cc2)[C@@H](C)CN([C@@H](C)CO)C(=O)c2cc(N(C)C)ccc2O1	inactive
C[C@H]1CN([C@@H](C)CO)C(=O)c2cc(C#Cc3ccccc3)cnc2O[C@H]1CN(C)S(=O)(=O)c1ccccc1F	inactive
C[C@@H]1CN([C@H](C)CO)C(=O)c2cc(NC(=O)NC3CCCCC3)ccc2O[C@@H](C)CCCCO[C@H]1CN(C)C(=O)Nc1ccc(C(F)(F)F)cc1	inactive
C[C@@H](O)c1nnc(N)[nH]1	inactive
C[C@@H]1CN([C@H](C)CO)C(=O)c2cccc(NS(=O)(=O)c3ccccc3)c2O[C@@H]1CN(C)S(=O)(=O)c1cccs1	inactive
CC1OC(OC2C(Oc3cc(O)c4c(=O)cc(-c5ccc(O)cc5)oc4c3)OC(CO)C(O)C2O)C(O)C(O)C1O (stereo not given)	inactive
Cc1noc(C)c1S(=O)(=O)N(C)C[C@@H]1Oc2ccc(NC(=O)NC(C)C)cc2CC(=O)N([C@@H](C)CO)C[C@H]1C	inactive
C/C=C/c1cnc2c(c1)C(=O)N([C@@H](C)CO)C[C@H](C)[C@@H](CN(C)S(=O)(=O)c1ccc(OC)cc1)O2	inactive
Cn1cnc(S(=O)(=O)N2CC[C@@H](O)[C@@H]2Cc2cnn(C)c2)c1	inactive
Nc1nc2c(ncn2COCCO)c(=O)[nH]1	inactive
